# According to PubChem BioAssay AID1508649 (National Center for Advancing Translational Sciences (NCATS), 2021):
# The whole screen tested about 43,000 compounds, of which about 830 (1.9%) were called active. Inconclusive means that the source gave no clear call. Such entries were picked first, then a sample of the others. The calls were made as follows: active = clear falling dose curves in both reporters; inconclusive = both reporters move, but less clearly or upward; inactive = either reporter flat; the % is the NLuc reporter signal. No potency is given beside an inconclusive call; the fits are too rough.
# Test: Cell-based coincidence reporter assay to measure PMP22 gene transcription in S16 Pmp22-F2sN cells - Primary screen
# Conditions: S16 Pmp22-F2sN Schwann cells (luciferase reporters placed in the Pmp22 gene), FLuc/NLuc coincidence luminescence, 24 h; measured here: NLuc reporter readout, at 57.5 µM (top of the series)
# Summary of the method: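 S16(c9) Schwann cells with FLuc/NLuc coincidence reporter in the Pmp22 3' UTR; compounds pin-transferred, 24 h at 37C. Dual-luciferase read: FLuc first, then NLuc after Stop&Glo, each 10 min at room temperature.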
# Potency is read from the fitted curve at half-maximal effect; tags tell the direction and shape of the fitted curve.
row,Structure (SMILES),Potency
1,O=C(CSc1nc2c([nH]c3ccccc32)c(=O)n1-c1ccccc1)Nc1ccccc1C(F)(F)F,"inconclusive [phenotype inactive, partial curve]"
2,COC(=O)c1sccc1S(=O)(=O)N1CCN(c2cccc(C)c2C)CC1,"inconclusive [phenotype inactive, single point]"
3,O=C(CSc1n[nH]c(-c2ccccc2)n1)N1CCCCC1,"inconclusive [phenotype inactive, single point]"
4,COc1ccc(-c2cc(C(=O)N3CCN(c4ccccc4OC)CC3)c3cc(C(C)C)ccc3n2)cc1,"inconclusive [phenotype inactive, partial curve]"
5,O=C(NCC1(c2ccccc2)CCCC1)C(=O)Nc1cccc(C(F)(F)F)c1,inactive
6,Cc1ccc(-c2nn3c(C)nnc3c3ccccc23)cc1S(=O)(=O)NCCO,"inconclusive [phenotype inactive, single point]"
7,CC(C)Cn1c(=O)c2ccccc2n2c(-c3ccc(Br)cc3)nnc12,inactive
8,Cc1ccccc1Nc1c(-c2ccsc2)nc2c(C)cccn12,"inconclusive [phenotype inactive, single point]"
9,CCC(=O)N1CCc2cc(S(=O)(=O)CCC(=O)N3CCN(c4cccc(C)c4)C(C)C3)ccc21 (centres undefined),"inconclusive [phenotype inactive, single point]"
10,CC(=O)N1CCCc2cc(S(=O)(=O)N(C)CC(=O)Nc3ccc(F)c(Cl)c3)ccc21,"inconclusive [phenotype inactive, partial curve]"
11,O=C(c1nc(-c2ccc(Cl)cc2)n2c1CCCCC2)N1CCN(c2ccc(F)cc2)CC1,"inconclusive [phenotype inactive, single point]"
12,Cc1cccc(-c2noc(CN(C(=O)c3ccc(C)c(C)c3)C(C)C)n2)c1,"inconclusive [phenotype inactive, single point]"
13,COc1cc(OC)cc(C(=O)Nc2ccc3nc(N4CCC(C)CC4)cc(C)c3c2)c1,"inconclusive [phenotype inactive, single point]"
14,CCc1c(C)nc2nncn2c1Nc1ccc(C)c(F)c1,"inconclusive [phenotype inactive, single point]"
15,COc1cccc(NC(CNS(=O)(=O)c2ccc(C)cc2)c2ccccc2)c1 (centres undefined),"inconclusive [phenotype inactive, single point]"
16,COc1cccc(CNC(=O)c2c(O)nc3ccccn3c2=O)c1,"inconclusive [phenotype inactive, partial curve, poor fit]"
17,CSc1ccc(CCNC(=O)c2cc3n(n2)CCCN(Cc2ccc(C)cc2)C3=O)cc1,"inconclusive [phenotype inactive, partial curve]"
18,COc1ccc(CN(C(=O)Nc2ccc(C)c(F)c2)C2CCN(C(C)=O)CC2)cc1,inactive
19,COc1ccc(CCC(=O)NC2CC(=O)N(c3ccc(C)c(C)c3)C2)cc1 (centres undefined),inactive
20,CCOC(=O)C1CCN(C(=O)CSc2c3c(nc4ccc(Cl)cc24)CCCC3)CC1,active: 18.9 µM

row,Structure (SMILES),Potency
1,CCOc1ccc(S(=O)(=O)Nc2ccc3c(c2)c(C(C)=O)c(C)n3S(=O)(=O)c2ccc(OCC)cc2)cc1,"inconclusive [phenotype inactive, single point]"
2,CC(C)c1ccc(NC(=O)C2CCCN(S(=O)(=O)c3cccc4nonc34)C2)cc1 (centres undefined),"inconclusive [phenotype inactive, single point]"
3,O=C(CCS(=O)(=O)c1cc2c3c(c1)CCN3C(=O)CC2)NCc1ccc(F)cc1,"inconclusive [phenotype inactive, single point]"
4,Cc1ccccc1CNC(=O)c1ccc2[nH]c(C)c(C)c2c1,inactive
5,CCOC(=O)c1cnc(N2CCN(c3ccc(C)cc3C)CC2)c2ccccc12,"inconclusive [phenotype inactive, single point]"
6,Cc1ccc(N2CC(NC(=O)C3CC3)CC2=O)cc1C (centres undefined),"inconclusive [phenotype inactive, single point]"
7,COc1cccc(NC(=O)N(Cc2c[nH]c3ccccc23)C2CCCCC2)c1,inactive
8,Cc1ccc(Cl)cc1NC(=O)Cn1ncc2c(C)n(Cc3ccccc3F)c(C)c2c1=O,"inconclusive [phenotype inactive, single point]"
9,Cn1nc(-c2ccc(N3CCCCC3)c(NC(=O)c3ccc(Cl)cc3)c2)c2ccccc2c1=O,inactive
10,COc1ccc(-c2ccc(CCC(=O)O)n2-c2cc(Cl)ccc2O)cc1,"inconclusive [phenotype inactive, partial curve, poor fit]"
11,COc1ccccc1-c1cc(C(F)(F)F)nc(S(=O)(=O)CCCC(=O)Nc2ccc(F)cc2F)n1,active: 11.3 µM
12,Cc1cc(C)cc(NC(=O)Cn2c(=O)n(Cc3ccc4c(c3)OCO4)c(=O)c3oc4ccccc4c32)c1,"inconclusive [phenotype inactive, single point]"
13,COc1ccc(OC(=O)c2cc(-c3ccc4c(c3)OCCO4)on2)cc1,inactive
14,CCN1CCC(N(Cc2ccc(F)cc2)C(=O)Nc2ccc(C)c(F)c2)CC1,inactive
15,CC(=O)Nc1ccc(S(=O)(=O)N2CCC(n3c(C)nc4cccnc43)CC2)cc1,inactive
16,O=C(CCC(=O)N1CCOc2ccccc21)NCc1cccs1,inactive
17,Cc1ccc(CNC(=O)CCCCCn2c(=O)c3sccc3n(CC(=O)C(C)(C)C)c2=O)cc1,"inconclusive [phenotype inactive, partial curve]"
18,Cc1ccccc1-n1c(SCC(=O)c2ccccc2)nnc1-c1ccc(F)cc1,active: 17.9 µM
19,CCCC(=O)OC1=C(C(C)=O)N(Cc2ccccc2)S(=O)(=O)c2ccccc21,"inconclusive [phenotype inactive, partial curve, poor fit]"
20,O=C1CCSC2(C(=O)N(Cc3ccccc3)c3ccccc32)N1c1ccccc1 (centres undefined),"inconclusive [phenotype inactive, single point]"

row,Structure (SMILES),Potency
1,COc1ccc(CN2CCc3nc(N4CCN(c5ccc(F)cc5)CC4)ncc3C2)c(OC)c1OC,active: 13.4 µM
2,CCc1cccc(-n2c(=O)c3cccnc3n2CC(=O)Nc2ccc(OC)c(Cl)c2)c1,"inconclusive [phenotype inactive, single point]"
3,CCC(=O)Nc1ccc(CC)cc1-c1nc2ccccc2n(CC(=O)c2ccc(OC)cc2)c1=O,inactive
4,COc1ccc(CCNC(=O)CCCCn2c(=O)c3ccccc3n(Cc3ccccc3)c2=O)cc1OC,"inconclusive [phenotype inactive, single point]"
5,CCOc1ccc(CCNC(=O)c2nn(C)c3c2CSc2ccc(C)cc2-3)cc1OCC,"inconclusive [phenotype inactive, partial curve]"
6,Clc1ccc(-c2csc(-c3nc(-c4ccc(Br)s4)cs3)n2)cc1,"inconclusive [phenotype inactive, single point]"
7,COc1ccc(Nc2nnc(-c3ccc(C)c(S(=O)(=O)NCc4nc5ccccc5[nH]4)c3)c3ccccc23)cc1,"inconclusive [phenotype inactive, single point]"
8,Cc1ccc(C)c(Cn2c(=O)cc(C(F)(F)F)c3c(C)nn(C)c32)c1,"inconclusive [phenotype inactive, full curve, poor fit]"
9,COc1cccc(NC(=O)CCc2nnc3n(Cc4ccccc4Cl)c(=O)c4ccccc4n23)c1,"inconclusive [phenotype inactive, single point]"
10,CCOc1ccc(-n2ccnc2SCC(=O)Nc2cccc3ccccc23)cc1,"inconclusive [phenotype inactive, single point]"
11,CSc1ccc(NC(=O)C2CCN(c3ncccn3)CC2)cc1,inactive
12,CCOC(=O)N1CCc2c(sc(NCc3cccc(F)c3)c2C(=O)Nc2ccc(OC)cc2)C1,"inconclusive [phenotype inactive, single point]"
13,COc1ccc(-n2cc(-c3ccccc3)nc2SCC(=O)Nc2ccccc2C)cc1,"inconclusive [phenotype inactive, single point]"
14,CCCCNc1oc(-c2ccc(COc3ccccc3C)o2)nc1C#N,inactive
15,COc1ccc(S(=O)(=O)NCCc2sc3nc(-c4ccc(C)cc4)nn3c2C)cc1C,"inconclusive [phenotype inactive, partial curve]"
16,CC(=O)c1cccc(NC(=O)Cc2ccc(NC(=O)N3CCCCc4ccccc43)cc2)c1,"inconclusive [phenotype inactive, single point]"
17,COc1ccc(S(=O)(=O)N(CC(=O)NCCSc2ccccc2)c2ccc(C)cc2)cc1,"inconclusive [phenotype inactive, single point]"
18,COc1ccc(OC)c(NC(=O)Cn2c(=O)n(Cc3ccco3)c(=O)c3cc(OC)c(OC)cc32)c1,"inconclusive [phenotype inactive, single point]"
19,Cc1cc(C)cc(-n2c(SCC(=O)Nc3cccc(F)c3)nc3c([nH]c4ccccc43)c2=O)c1,"inconclusive [phenotype inactive, single point]"
